# Test results reported in the supplement of paper PMC8728848.
# The other results are listed elsewhere or left out.
# Assays:
# Test in all cases: glycan array binding signal (z-score within array); higher = stronger binding
# Details in all cases: glycan notation: IUPAC condensed, linker removed
# Gal(a1-6)Glc = biological target: Gal(a1-6)Glc
# Summary of the method: (§1)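 Glycan array binding is given as a within-array Z-score, which can be read as non-binding when negative. The arrays, 3228 of them, came from the Consortium for Functional Glycomics database and were retained only where the protein sequence was available. Z-scores were averaged across arrays of the same protein sequence at different concentrations or buffers and across linkers.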
# Gal(b1-2)Gal = biological target: Gal(b1-2)Gal
# Summary of the method: as §1
# Gal(b1-3)Gal = biological target: Gal(b1-3)Gal
# Summary of the method: as §1
# Gal(b1-3)Gal(b1-4)GlcNAc = biological target: Gal(b1-3)Gal(b1-4)GlcNAc
# Summary of the method: as §1
# Gal(b1-3)GalNAc = biological target: Gal(b1-3)GalNAc
# Summary of the method: as §1
# [1] = biological target: Gal(b1-3)GalNAc(a1-3)[Fuc(a1-2)]Gal(b1-4)Glc
# Summary of the method: as §1
# [2] = biological target: Gal(b1-3)GalNAc(a1-3)[Fuc(a1-2)]Gal(b1-4)GlcNAc
# Summary of the method: as §1
# Gal(b1-3)GalNAc(b1-3)Gal = biological target: Gal(b1-3)GalNAc(b1-3)Gal
# Summary of the method: as §1
# [3] = biological target: Gal(b1-3)GalNAc(b1-3)Gal(a1-4)Gal(b1-4)Glc
# Summary of the method: as §1
# [4] = biological target: Gal(b1-3)GalNAc(b1-4)Gal(b1-4)Glc
# Summary of the method: as §1
# [5] = biological target: Gal(b1-3)GalNAc(b1-4)[Neu5Ac(a2-3)]Gal(b1-4)Glc
# Summary of the method: as §1
# Gal(b1-3)GlcNAc = biological target: Gal(b1-3)GlcNAc
# Summary of the method: as §1
# [6] = biological target: Gal(b1-3)GlcNAc(a1-3)Gal(b1-4)GlcNAc
# Summary of the method: as §1
# [7] = biological target: Gal(b1-3)GlcNAc(a1-6)Gal(b1-4)GlcNAc
# Summary of the method: as §1
# Gal(b1-3)GlcNAc(b1-2)Man = biological target: Gal(b1-3)GlcNAc(b1-2)Man
# Summary of the method: as §1
# [8] = biological target: Gal(b1-3)GlcNAc(b1-2)Man(a1-3)[Gal(b1-3)GlcNAc(b1-2)Man(a1-6)]Man(b1-4)GlcNAc(b1-4)GlcNAc
# Summary of the method: as §1
# [9] = biological target: Gal(b1-3)GlcNAc(b1-2)Man(a1-3)[Gal(b1-3)GlcNAc(b1-2)Man(a1-6)]Man(b1-4)GlcNAc(b1-4)[Fuc(a1-6)]GlcNAc
# Summary of the method: as §1
# [10] = biological target: Gal(b1-3)GlcNAc(b1-2)Man(a1-3)[GlcNAc(b1-4)][Gal(b1-3)GlcNAc(b1-2)Man(a1-6)]Man(b1-4)GlcNAc(b1-4)GlcNAc
# Summary of the method: as §1
# [11] = biological target: Gal(b1-3)GlcNAc(b1-2)[Gal(b1-3)GlcNAc(b1-6)]Man(a1-6)[Gal(b1-3)GlcNAc(b1-2)Man(a1-3)]Man(b1-4)GlcNAc(b1-4)GlcNAc
# Summary of the method: as §1
# [12] = biological target: Gal(b1-3)GlcNAc(b1-3)Gal(b1-3)GlcNAc
# Summary of the method: as §1
# [13] = biological target: Gal(b1-3)GlcNAc(b1-3)Gal(b1-4)Glc
# Summary of the method: as §1
# [14] = biological target: Gal(b1-3)GlcNAc(b1-3)Gal(b1-4)GlcNAc
# Summary of the method: as §1
# [15] = biological target: Gal(b1-3)GlcNAc(b1-3)Gal(b1-4)GlcNAc(b1-2)Man(a1-3)[Gal(b1-3)GlcNAc(b1-3)Gal(b1-4)GlcNAc(b1-2)Man(a1-6)]Man(b1-4)GlcNAc(b1-4)GlcNAc
# Summary of the method: as §1
# [16] = biological target: Gal(b1-3)GlcNAc(b1-3)Gal(b1-4)GlcNAc(b1-2)[Gal(b1-3)GlcNAc(b1-3)Gal(b1-4)GlcNAc(b1-6)]Man(a1-6)[Gal(b1-3)GlcNAc(b1-3)Gal(b1-4)GlcNAc(b1-2)Man(a1-3)]Man(b1-4)GlcNAc(b1-4)[Fuc(a1-6)]GlcNAc
# Summary of the method: as §1
# [17] = biological target: Gal(b1-3)GlcNAc(b1-3)Gal(b1-4)GlcNAc(b1-3)Gal(b1-4)GlcNAc(b1-2)[Gal(b1-3)GlcNAc(b1-3)Gal(b1-4)GlcNAc(b1-3)Gal(b1-4)GlcNAc(b1-6)]Man(a1-6)[Gal(b1-3)GlcNAc(b1-3)Gal(b1-4)GlcNAc(b1-3)Gal(b1-4)GlcNAc(b1-2)Man(a1-3)]Man(b1-4)GlcNAc(b1-4)[Fuc(a1-6)]GlcNAc
# Summary of the method: as §1
# [18] = biological target: Gal(b1-3)GlcNAc(b1-3)Gal(b1-4)GlcNAc(b1-6)[Gal(b1-3)GlcNAc(b1-3)]Gal(b1-4)Glc
# Summary of the method: as §1
# [19] = biological target: Gal(b1-3)GlcNAc(b1-3)Gal(b1-4)[Fuc(a1-3)]GlcNAc
# Summary of the method: as §1
# [20] = biological target: Gal(b1-3)GlcNAc(b1-3)Gal(b1-4)[Fuc(a1-3)]GlcNAc(b1-6)[Gal(b1-3)GlcNAc(b1-3)]Gal(b1-4)Glc
# Summary of the method: as §1
# [21] = biological target: Gal(b1-3)GlcNAc(b1-3)GalNAc
# Summary of the method: as §1
# [22] = biological target: Gal(b1-3)GlcNAc(b1-6)Gal(b1-4)GlcNAc
# Summary of the method: as §1
# [23] = biological target: Gal(b1-3)GlcNAc(b1-6)GalNAc
# Summary of the method: as §1
# [24] = biological target: Gal(b1-3)GlcNAc(b1-6)[Gal(b1-3)]GalNAc
# Summary of the method: as §1
# Gal(b1-3)GlcNAc6S = biological target: Gal(b1-3)GlcNAc6S
# Summary of the method: as §1
# [25] = biological target: Gal(b1-3)[Fuc(a1-4)]GlcNAc
# Summary of the method: as §1
# [26] = biological target: Gal(b1-3)[Fuc(a1-4)]GlcNAc(b1-2)Man
# Summary of the method: as §1
# [27] = biological target: Gal(b1-3)[Fuc(a1-4)]GlcNAc(b1-2)Man(a1-3)[Gal(b1-3)[Fuc(a1-4)]GlcNAc(b1-2)Man(a1-6)]Man(b1-4)GlcNAc(b1-4)[Fuc(a1-6)]GlcNAc
# Summary of the method: as §1
# [28] = biological target: Gal(b1-3)[Fuc(a1-4)]GlcNAc(b1-3)Gal(b1-3)[Fuc(a1-4)]GlcNAc
# Summary of the method: as §1
binder,measurement,setting,value
PX9961A-pdi-456-24-456 (Parabacteroides distasonis) (protein) KTSSTQLPTIDAISSVADLTNAVNGVYEQQATEVGSYGAEFTLLADLRSGDFQSISTVNHAGPMYRYQTGKNDEMVYSFYKLFYNSLARLNNVLAAAENLEGADVDILKGELYAMRALYHFDLARVFAKLPSTTDMNDLGIVLSTEVYPTDYIGTRATLQQTYDQILKDIETALPLLSKDKQTGHINYWGALAIRARAYLYLEKNKEALADCKEIIASSPYKLYTRDEYIGAWDKEGTNEAIFEILVTPNYNAQRNSIGYFTHASGYGECAATESFLEELAKHPGDIRTELFAKETDNGYDGTYPQKYKGRDGQIYVNNPKVVRLSEVYLIAAEAALKAGDTSAAAGYMNTLRKNRIENYTDVASITLDDILLERRLELFTEGHTAWDAWRNGKSVNNKFVGEVKPGDYRTIMAIPIGEITVSRGQLIQNPGY,glycan array binding signal (z-score),Gal(a1-6)Glc,-0.23
same,glycan array binding signal (z-score),Gal(b1-2)Gal,-0.248
same,glycan array binding signal (z-score),Gal(b1-3)Gal,-0.086
same,glycan array binding signal (z-score),Gal(b1-3)Gal(b1-4)GlcNAc,-0.049
same,glycan array binding signal (z-score),Gal(b1-3)GalNAc,0.228
same,glycan array binding signal (z-score),[1],-0.111
same,glycan array binding signal (z-score),[2],-0.533
same,glycan array binding signal (z-score),Gal(b1-3)GalNAc(b1-3)Gal,0.253
same,glycan array binding signal (z-score),[3],0.384
same,glycan array binding signal (z-score),[4],0.652
same,glycan array binding signal (z-score),[5],-0.081
same,glycan array binding signal (z-score),Gal(b1-3)GlcNAc,-0.255
same,glycan array binding signal (z-score),[6],-0.004
same,glycan array binding signal (z-score),[7],-0.438
same,glycan array binding signal (z-score),Gal(b1-3)GlcNAc(b1-2)Man,0.208
same,glycan array binding signal (z-score),[8],0.072
same,glycan array binding signal (z-score),[9],-0.732
same,glycan array binding signal (z-score),[10],-0.052
same,glycan array binding signal (z-score),[11],0.313
same,glycan array binding signal (z-score),[12],0.213
same,glycan array binding signal (z-score),[13],-0.54
same,glycan array binding signal (z-score),[14],-0.516
same,glycan array binding signal (z-score),[15],-0.52
same,glycan array binding signal (z-score),[16],1.83
same,glycan array binding signal (z-score),[17],0.399
same,glycan array binding signal (z-score),[18],-0.037
same,glycan array binding signal (z-score),[19],-0.217
same,glycan array binding signal (z-score),[20],-0.315
same,glycan array binding signal (z-score),[21],-0.615
same,glycan array binding signal (z-score),[22],0.264
same,glycan array binding signal (z-score),[23],-0.245
same,glycan array binding signal (z-score),[24],0.048
same,glycan array binding signal (z-score),Gal(b1-3)GlcNAc6S,-0.214
same,glycan array binding signal (z-score),[25],-0.145
same,glycan array binding signal (z-score),[26],0.103
same,glycan array binding signal (z-score),[27],0.599
same,glycan array binding signal (z-score),[28],0.1
